{"source": "patent US12553037B2", "about": "“Engineered class 2, type V repressor systems” (Scribe Therapeutics Inc., priority 2021, dated 2026)", "key": {"[1]": {"system": "5′UTR sequence of the C9orf72 locus in the GFP-TK reporter", "assay": "Ganciclovir survival of GFP-TK-c10 reporter cells, arrayed dXR transductions (Example 3)", "conditions": "dXR with ZNF10-KRAB and guide 174, 5 μg/mL ganciclovir for 5 days"}, "[2]": {"system": "5′UTR sequence of the C9orf72 locus in the GFP-TK reporter", "assay": "Lentivirus competition experiments, spacer fitness by NGS (Example 3)", "conditions": "dXR (ZNF10-KRAB), scaffold 174, GFP-TK-c10 cells, 5 days 5 μg/mL ganciclovir", "method": "Specifically, TK metabolizes the typically inert pro-drug ganciclovir into a toxic thymidine analog that leads to cell death. The nucleofected cells were selected in hygromycin for 1 month, sorted to single cells and characterized for ganciclovir sensitivity.\nSeparately, cells were transduced (250,000 cells; 6-well format) with multiple virus combinations at defined ratios (Table 17). 48 hours post-transduction, half of the cells in each well were harvested and frozen as cell pellets, and the other half were selected in the same manner (5 days; 5 μg/mL ganciclovir). After ganciclovir selection the remaining cells were harvested and gDNA was extracted from both pre- and post-ganciclovir treatment samples. Primers flanking the region containing the spacer sequence in the lentivirus constructs were used to generate amplicons for next generation sequencing analysis in which the ratios of the spacers in each well were compared pre- and post-selection. These ratios were used to calculate spacer fitness scores for each competition by taking the log 2 of the fold change in the spacer frequency from pre-selection to post-selection. Fitness was determined by the following equation: […]"}}}
{"substance": "NT: non-targeting spacer 0.0, CGAGACGUAAUUACGUCUCG (expressed or natural sequence)", "values": [{"measurement": "cell survival after ganciclovir treatment", "setting": "[1]", "value": "resulted in cell death"}, {"measurement": "Fitness (log2 fold change in frequency of spacer counts, pre- to post-selection)", "setting": "[2]; Experiment 1: competition of spacers 29.2000 (1) and 0.0 (NT), equal ratio", "value": "−3.38", "unit": "log2 fold change"}, {"measurement": "Fitness (log2 fold change in frequency of spacer counts, pre- to post-selection)", "setting": "[2]; Experiment 2: competition of spacers 29.168 (2) and 0.0 (NT), equal ratio", "value": "−3.10", "unit": "log2 fold change"}, {"measurement": "Fitness (log2 fold change in frequency of spacer counts, pre- to post-selection)", "setting": "[2]; Experiment 3: competition of spacers 29.163 (3) and 0.0 (NT), equal ratio", "value": "−0.38", "unit": "log2 fold change"}, {"measurement": "Fitness (log2 fold change in frequency of spacer counts, pre- to post-selection)", "setting": "[2]; Experiment 5 as printed in Table 18: spacers 1, 2, 3 and NT in competition", "value": "−3.44", "unit": "log2 fold change"}]}
